Two substances from paper PMC9071577 can be followed below.

Chains of the proteins cited; added tags and fusions are not shown. Lines headed by an entry give the natural chain unless they say otherwise; changes in a name come on top.
UniProt P39705: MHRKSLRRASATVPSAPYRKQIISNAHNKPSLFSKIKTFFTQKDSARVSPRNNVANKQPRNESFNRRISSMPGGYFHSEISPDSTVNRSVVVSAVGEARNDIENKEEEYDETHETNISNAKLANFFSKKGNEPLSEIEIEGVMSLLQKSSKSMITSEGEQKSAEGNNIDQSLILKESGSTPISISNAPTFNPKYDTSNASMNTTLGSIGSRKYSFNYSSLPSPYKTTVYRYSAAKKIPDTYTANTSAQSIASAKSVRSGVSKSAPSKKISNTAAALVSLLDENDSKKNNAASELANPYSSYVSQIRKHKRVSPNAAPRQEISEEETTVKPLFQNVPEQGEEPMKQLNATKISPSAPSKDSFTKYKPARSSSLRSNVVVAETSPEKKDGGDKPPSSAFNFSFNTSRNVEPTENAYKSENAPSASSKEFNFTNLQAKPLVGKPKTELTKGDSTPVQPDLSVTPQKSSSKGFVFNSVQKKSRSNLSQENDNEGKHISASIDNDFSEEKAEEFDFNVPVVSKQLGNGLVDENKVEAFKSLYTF

What all share (experiment): two-hybrid; MAR alleles as bait (Gal4 DNA-binding domain, pGBKT7), Nup60 or Nup60(188-388) as prey (Gal4 activation domain, pACT2-2); strain AH109 (pGAL1-HIS3); growth spotted on SC -Trp -Leu -His with 25 mM 3-AT (the legend of Fig. 2 says 5 mM), 3 days
Assay [1] addresses T1, Nup2 MAR (51-175) F120Y fused to the Gal4 DNA-binding domain (S. cerevisiae) (UniProt P32499).
T1 sequence: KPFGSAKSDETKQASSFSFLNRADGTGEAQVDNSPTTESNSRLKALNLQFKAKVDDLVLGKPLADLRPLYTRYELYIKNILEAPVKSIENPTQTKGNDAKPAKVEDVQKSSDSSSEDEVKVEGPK

The target in assay [2] is T2, Nup2 MAR (51-175) K101E fused to the Gal4 DNA-binding domain (S. cerevisiae) (UniProt P32499).
T2 sequence: T1 sequence with K51E, Y70F

For assay [3], the target named is T3, Nup2 meiotic-autonomous region (MAR, amino acids 51-175), wild type, fused to the Gal4 DNA-binding domain (S. cerevisiae) (UniProt P32499).
T3 sequence: T1 sequence with Y70F

Assay [4] has as its target T4, Nup2 mar(89-130) fused to the Gal4 DNA-binding domain (S. cerevisiae) (UniProt P32499).
T4 sequence: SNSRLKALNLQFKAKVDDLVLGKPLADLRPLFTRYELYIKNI

Numbering of substitutions follows the chain as printed. These are yes or no findings as the source states them, for the method shown. Some binding calls cover weakened binding; strength is not graded here. Where a sequence is shown, tags or fusion partners need not be part of it.

For “Nup60(188-388) fused to the Gal4 activation domain (from UniProt P39705 188-388) (domain or fragment)”, the binding entry in assay [1] is “no binding”; in assay [2], “no binding”; in assay [3] it was “binds”; in assay [4], “no binding”.

Take “Full-length Nup60 fused to the Gal4 activation domain (from UniProt P39705 1-539)”: the binding result in assay [1], in assay [2] and in assay [3] was “binds” in each case.
